Some of the results follow. The full chains were built here from the parent and the listed change. Inactive controls read about 0.05.
B1: TEV protease; numbered along this chain (parent)
chain: MGESLFKGPRDYNPISSSICHLTNESDGHTTSLYGIGFGPFIITNKHLFRRNNGTLVVQSLHGVFKVKDTTTLQQHLVDGRDMIIIRMPKDFPPFPQKLKFREPQREERICLVTTNFQTKSMSSMVSDTSCTFPSGDGIFWKHWIQTKDGQCGSPLVSTRDGFIVGIHSASNFTNTNNYFTSVPKNFMELLTNQEAQQWVSGWRLNADSVLWGGHKVFMVKPEEPFQPVKEATQL

Variants of: B1
Assay: raw area under fraction-flipped curve 0-4 h after induction (AUC4h, not background-subtracted), DNA-recorder readout of cleavage of the substrate (dimensionless); higher = more cleavage of the substrate by the protease variant
Conditions: temperature: 34 °C; time window: 0-4 h after rhamnose induction
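Also: Bxb1 expression induced with 0.2% (w/v) L-rhamnose at OD600 near 0.5, cultures sampled hourly, flipped fraction per protease–substrate barcode pair counted by paired-end Illumina sequencing.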

Variant | area with substrate ENLYFCS | area with substrate ENLYFDS | area with substrate ENLYFES | area with substrate ENLYFHS | area with substrate ENLYFIS | area with substrate ENLYFLS | area with substrate ENLYFNS | area with substrate ENLYFPS | area with substrate ENLYFRS | area with substrate ENLYFSS | area with substrate ENLYFVS | area with substrate ENLYFWS | area with substrate ENLYFYS | area with substrate ENLYFFS | area with substrate ENLYFKS | area with substrate ENLYFMS | area with substrate ENLYFTS | area with substrate ENLYFGS
MGESLFKGPRDYNPISSSICHLTNESDGHTTSLYGIGFGPFIITNKHLFRRNNGTLVVQSLHGVFKVKDTTTLQQHLVDGRDMIIIRMPKDFPPFPQKLKFREPQREERICLVTTNFQTKSMSSMVSDTSCTFPSGDGIFWKHWIQTKDGQCGSPLVSTRDGFIVGIHSASNFTNTNNYFTSVPKNFMELLTNQEAQQWVSGWRLNADSVLWGGHKVFMVKPEEPFQPVKVATQL [E231V] | 0.0739 | 0.0561 | 0.0622 | 0.0613 | 0.0419 | 0.0551 | 0.081 | 0.0661 | 0.0553 | 0.06 | 0.0618 | 0.0611 | 0.0608 |  |  |  |  | 
MGESLFKGPRDYNPISSSICHLTNESDGHTTSLYGIGFGPFIITNKHLFRRNQGTLVVQSLHGVFKVKDTTTLQQHLVDGRDMIIIRMPKDFPPFPQKLKFREPQREERICLVTTNFQTKSMSSMVSDTSCTFPSGDGIFWKHWIQTKDGQCGSPLVSTRDGFIVGIHSASNFTNTNNYFTSVPKNFMELLTNQEAQQWVSGWRLNADSVLWGGHKVFMVKPEEPFQPVKEATQL [N53Q] |  | 0.0689 | 0.0656 | 0.0676 | 0.0593 | 0.0547 |  | 0.0621 | 0.0604 | 0.0566 | 0.0517 | 0.074 |  | 0.0773 | 0.0571 | 0.0539 | 0.0546 | 
MGESLFKGPRDYNPISSSICHLTNESDGHTTSLYGIGFGPFIITNKHLFRRNNGTLVVQSLHGVFKVKDTTTLQQHLVWGRDMIIIRMPKDFPPFPQKLKFREPQREERICLVTTNFQTKSMSSMVSDTSCTFPSGDGIFWKHWIQTKDGQCGSPLVSTRDGFIVGIHSASNFTNTNNYFTSVPKNFMELLTNQEAQQWVSGWRLNADSVLWGGHKVFMVKPEEPFQPVKEATQL [D79W] |  | 0.0685 | 0.0693 | 0.0464 | 0.0552 | 0.0658 |  | 0.0468 |  | 0.0633 | 0.0605 | 0.06 |  | 0.0707 | 0.054 | 0.0563 | 0.0673 | 0.0616
MGESLFKGPRDYNPISSSICHLTNESDGHTTSLYGIGFGPFIITNKHLFRRNNGTLVVQSLHGVFKVKDTTTLQQHLVDGRDMIIIRMPKDFPTFPQKLKFREPQREERICLVTTNFQTKSMSSMVSDTSCTFPSGDGIFWKHWIQTKDGQCGSPLVSTRDGFIVGIHSASNFTNTNNYFTSVPKNFMELLTNQEAQQWVSGWRLNADSVLWGGHKVFMVKPEEPFQPVKEATQL [P94T] |  | 0.0653 | 0.0415 | 0.0797 | 0.0479 |  | 0.0723 | 0.0536 |  | 0.0694 |  |  |  | 0.0719 |  | 0.0694 | 0.0581 | 0.0547
MGESLFKGPRDYNPISSSICHLTNESDGHTTSLYGIGFGPFIITNKHLFRRNNGTLVVQSLHGVFKVKDTTTLQQHLVDGRDMIIIRMPKDFPPFPQKLYFREPQREERICLVTTNFQTKSMSSMVSDTSCTFPSGDGIFWKHWIQTKDGQCGSPLVSTRDGFIVGIHSASNFTNTNNYFTSVPKNFMELLTNQEAQQWVSGWRLNADSVLWGGHKVFMVKPEEPFQPVKEATQL [K100Y] |  | 0.0825 | 0.0538 | 0.0538 | 0.0503 | 0.0779 |  | 0.066 | 0.0585 |  | 0.0706 | 0.0444 |  | 0.0593 | 0.0627 | 0.0951 | 0.0507 | 0.0628
MGESLFKGPRDYNPISSSICHLTNESDGHTTSLYGIGFGPFIITNKHLFRRNNGTLVVQSLHGVFKVKDTTTLQQHLVDGRDMIIIRMPKDFPPFPQKLKFMEPQREERICLVTTNFQTKSMSSMVSDTSCTFPSGDGIFWKHWIQTKDGQCGSPLVSTRDGFIVGIHSASNFTNTNNYFTSVPKNFMELLTNQEAQQWVSGWRLNADSVLWGGHKVFMVKPEEPFQPVKEATQL [R102M] |  | 0.0474 | 0.0513 | 0.0489 | 0.0496 |  | 0.0513 | 0.045 | 0.0422 | 0.0589 |  | 0.0538 | 0.0677 | 0.0469 | 0.0584 | 0.0706 | 0.0562 | 
MGESLFKGPRDYNPISSSICHLTNESDGHTTSLYGIGFGPFIITNKHLFRRNNGTLVVQSLHGVFKVKDTTTLQQHLVDGRDMIIIRMPKDFPPFPQKLKFREPQREERICLVTTNFQTKSMSSMVLDTSCTFPSGDGIFWKHWIQTKDGQCGSPLVSTRDGFIVGIHSASNFTNTNNYFTSVPKNFMELLTNQEAQQWVSGWRLNADSVLWGGHKVFMVKPEEPFQPVKEATQL [S127L] |  | 0.0563 | 0.0503 |  | 0.0732 | 0.0608 |  | 0.0571 |  |  | 0.0624 | 0.046 |  | 0.0601 |  | 0.0956 | 0.0674 | 0.0519
MGESLFKGPRDYNPISSSICHLTNESDGHTTSLYGIGFGPFIITNKHLFRRNNGTLVVQSLHGVFKVKDTTTLQQHLVDGRDMIIIRMPKDFPPFPQKLKFREPQREERICLVTTNFQTKSMSSMVSDLSCTFPSGDGIFWKHWIQTKDGQCGSPLVSTRDGFIVGIHSASNFTNTNNYFTSVPKNFMELLTNQEAQQWVSGWRLNADSVLWGGHKVFMVKPEEPFQPVKEATQL [T129L] |  | 0.0554 | 0.0606 | 0.0387 | 0.0505 |  | 0.0782 | 0.0605 | 0.0625 | 0.0599 | 0.0576 | 0.0582 | 0.0625 | 0.0707 | 0.0631 | 0.0695 | 0.0598 | 
MGESLFKGPRDYNPISSSICHLTNESDGHTTSLYGIGFGPFIITNKHLFRRNNGTLVVQSLHGVFKVKDTTTLQQHLVDGRDMIIIRMPKDFPPFPQKLKFREPQREERICLVTTNFQTKSMSSMVSDTSCTFPSCDGIFWKHWIQTKDGQCGSPLVSTRDGFIVGIHSASNFTNTNNYFTSVPKNFMELLTNQEAQQWVSGWRLNADSVLWGGHKVFMVKPEEPFQPVKEATQL [G136C] |  | 0.0619 | 0.071 | 0.0702 | 0.0581 |  | 0.0629 | 0.0701 | 0.0518 | 0.0509 | 0.0605 | 0.0616 | 0.0546 | 0.0657 |  | 0.0657 | 0.0567 | 0.0533
